Test results reported in the supplement of paper PMC8728848.
Some of the results follow.

Columns and labels:
Assay in all cases: glycan array binding signal (z-score within array); higher = stronger binding
Conditions in all cases: glycan notation: IUPAC condensed, linker removed; mutation: R120K
[1] = target: Gal(b1-4)GlcNAc(b1-2)[Gal(b1-4)GlcNAc(b1-6)]Man(a1-6)[Gal(b1-4)GlcNAc(b1-2)Man(a1-3)]Man(b1-4)GlcNAc(b1-4)[Fuc(a1-6)]GlcNAc
Outline: (§1)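 Negative Z-scores can be read as non-binding. The Z-score is calculated within each array and then averaged across arrays of one protein sequence at different concentrations or buffers and across linkers. Arrays, 3228 in all, were curated from the Consortium for Functional Glycomics database and kept only where the protein sequence was available.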

[2] = target: Gal(b1-4)GlcNAc(b1-2)[Gal(b1-4)GlcNAc(b1-6)]Man(a1-6)[GlcNAc(b1-4)][Gal(b1-4)GlcNAc(b1-2)Man(a1-3)]Man(b1-4)GlcNAc(b1-4)GlcNAc
Outline: as §1

[3] = target: Gal(b1-4)GlcNAc(b1-2)[Gal(b1-4)GlcNAc(b1-6)]Man(a1-6)[GlcNAc(b1-4)][Gal(b1-4)GlcNAc(b1-2)[Gal(b1-4)GlcNAc(b1-4)]Man(a1-3)]Man(b1-4)GlcNAc(b1-4)[Fuc(a1-6)]GlcNAc
Outline: as §1

[4] = target: Gal(b1-4)GlcNAc(b1-3)Gal(b1-3)GalNAc
Outline: as §1

[5] = target: Gal(b1-4)GlcNAc(b1-3)Gal(b1-3)GlcNAc
Outline: as §1

[6] = target: Gal(b1-4)GlcNAc(b1-3)Gal(b1-4)Glc
Outline: as §1

[7] = target: Gal(b1-4)GlcNAc(b1-3)Gal(b1-4)GlcNAc
Outline: as §1

[8] = target: Gal(b1-4)GlcNAc(b1-3)Gal(b1-4)GlcNAc(b1-2)Man(a1-3)[Gal(b1-4)GlcNAc(b1-3)Gal(b1-4)GlcNAc(b1-2)Man(a1-6)]Man(b1-4)GlcNAc(b1-4)GlcNAc
Outline: as §1

[9] = target: Gal(b1-4)GlcNAc(b1-3)Gal(b1-4)GlcNAc(b1-2)Man(a1-3)[Gal(b1-4)GlcNAc(b1-3)Gal(b1-4)GlcNAc(b1-2)Man(a1-6)]Man(b1-4)GlcNAc(b1-4)[Fuc(a1-6)]GlcNAc
Outline: as §1

[10] = target: Gal(b1-4)GlcNAc(b1-3)Gal(b1-4)GlcNAc(b1-2)[Gal(b1-4)GlcNAc(b1-3)Gal(b1-4)GlcNAc(b1-6)]Man(a1-6)[Gal(b1-4)GlcNAc(b1-3)Gal(b1-4)GlcNAc(b1-2)Man(a1-3)]Man(b1-4)GlcNAc(b1-4)GlcNAc
Outline: as §1

[11] = target: Gal(b1-4)GlcNAc(b1-3)Gal(b1-4)GlcNAc(b1-2)[Gal(b1-4)GlcNAc(b1-3)Gal(b1-4)GlcNAc(b1-6)]Man(a1-6)[Gal(b1-4)GlcNAc(b1-3)Gal(b1-4)GlcNAc(b1-2)Man(a1-3)]Man(b1-4)GlcNAc(b1-4)[Fuc(a1-6)]GlcNAc
Outline: as §1

[12] = target: Gal(b1-4)GlcNAc(b1-3)Gal(b1-4)GlcNAc(b1-3)Gal(b1-4)GlcNAc
Outline: as §1

[13] = target: Gal(b1-4)GlcNAc(b1-3)Gal(b1-4)GlcNAc(b1-3)Gal(b1-4)GlcNAc(b1-2)Man(a1-3)[Gal(b1-4)GlcNAc(b1-3)Gal(b1-4)GlcNAc(b1-3)Gal(b1-4)GlcNAc(b1-2)Man(a1-6)]Man(b1-4)GlcNAc(b1-4)GlcNAc
Outline: as §1

[14] = target: Gal(b1-4)GlcNAc(b1-3)Gal(b1-4)GlcNAc(b1-3)Gal(b1-4)GlcNAc(b1-2)Man(a1-3)[Gal(b1-4)GlcNAc(b1-3)Gal(b1-4)GlcNAc(b1-3)Gal(b1-4)GlcNAc(b1-2)Man(a1-6)]Man(b1-4)GlcNAc(b1-4)[Fuc(a1-6)]GlcNAc
Outline: as §1

[15] = target: Gal(b1-4)GlcNAc(b1-3)Gal(b1-4)GlcNAc(b1-3)Gal(b1-4)GlcNAc(b1-2)[Gal(b1-4)GlcNAc(b1-3)Gal(b1-4)GlcNAc(b1-3)Gal(b1-4)GlcNAc(b1-6)]Man(a1-6)[Gal(b1-4)GlcNAc(b1-3)Gal(b1-4)GlcNAc(b1-3)Gal(b1-4)GlcNAc(b1-2)Man(a1-3)]Man(b1-4)GlcNAc(b1-4)[Fuc(a1-6)]GlcNAc
Outline: as §1

[16] = target: Gal(b1-4)GlcNAc(b1-3)Gal(b1-4)GlcNAc(b1-3)Gal(b1-4)GlcNAc(b1-3)Gal(b1-4)GlcNAc(b1-2)Man(a1-3)[Gal(b1-4)GlcNAc(b1-3)Gal(b1-4)GlcNAc(b1-3)Gal(b1-4)GlcNAc(b1-3)Gal(b1-4)GlcNAc(b1-2)Man(a1-6)]Man(b1-4)GlcNAc(b1-4)GlcNAc
Outline: as §1

[17] = target: Gal(b1-4)GlcNAc(b1-3)Gal(b1-4)GlcNAc(b1-3)Gal(b1-4)GlcNAc(b1-3)Gal(b1-4)GlcNAc(b1-2)Man(a1-3)[Gal(b1-4)GlcNAc(b1-3)Gal(b1-4)GlcNAc(b1-3)Gal(b1-4)GlcNAc(b1-3)Gal(b1-4)GlcNAc(b1-2)Man(a1-6)]Man(b1-4)GlcNAc(b1-4)[Fuc(a1-6)]GlcNAc
Outline: as §1

[18] = target: Gal(b1-4)GlcNAc(b1-3)Gal(b1-4)GlcNAc(b1-3)Gal(b1-4)GlcNAc(b1-3)Gal(b1-4)GlcNAc(b1-2)[Gal(b1-4)GlcNAc(b1-3)Gal(b1-4)GlcNAc(b1-3)Gal(b1-4)GlcNAc(b1-3)Gal(b1-4)GlcNAc(b1-6)]Man(a1-6)[Gal(b1-4)GlcNAc(b1-3)Gal(b1-4)GlcNAc(b1-3)Gal(b1-4)GlcNAc(b1-3)Gal(b1-4)GlcNAc(b1-2)Man(a1-3)]Man(b1-4)GlcNAc(b1-4)[Fuc(a1-6)]GlcNAc
Outline: as §1

[19] = target: Gal(b1-4)GlcNAc(b1-3)Gal(b1-4)GlcNAc(b1-3)Gal(b1-4)GlcNAc(b1-3)Gal(b1-4)GlcNAc(b1-3)Gal(b1-4)GlcNAc(b1-2)Man(a1-3)[Gal(b1-4)GlcNAc(b1-3)Gal(b1-4)GlcNAc(b1-3)Gal(b1-4)GlcNAc(b1-3)Gal(b1-4)GlcNAc(b1-3)Gal(b1-4)GlcNAc(b1-2)Man(a1-6)]Man(b1-4)GlcNAc(b1-4)GlcNAc
Outline: as §1

[20] = target: Gal(b1-4)GlcNAc(b1-3)Gal(b1-4)GlcNAc(b1-3)Gal(b1-4)GlcNAc(b1-3)Gal(b1-4)GlcNAc(b1-3)Gal(b1-4)GlcNAc(b1-2)Man(a1-3)[Gal(b1-4)GlcNAc(b1-3)Gal(b1-4)GlcNAc(b1-3)Gal(b1-4)GlcNAc(b1-3)Gal(b1-4)GlcNAc(b1-3)Gal(b1-4)GlcNAc(b1-2)Man(a1-6)]Man(b1-4)GlcNAc(b1-4)[Fuc(a1-6)]GlcNAc
Outline: as §1

[21] = target: Gal(b1-4)GlcNAc(b1-3)Gal(b1-4)GlcNAc(b1-3)Gal(b1-4)GlcNAc(b1-3)Gal(b1-4)GlcNAc(b1-3)Gal(b1-4)GlcNAc(b1-2)[Gal(b1-4)GlcNAc(b1-3)Gal(b1-4)GlcNAc(b1-3)Gal(b1-4)GlcNAc(b1-3)Gal(b1-4)GlcNAc(b1-3)Gal(b1-4)GlcNAc(b1-6)]Man(a1-6)[Gal(b1-4)GlcNAc(b1-3)Gal(b1-4)GlcNAc(b1-3)Gal(b1-4)GlcNAc(b1-3)Gal(b1-4)GlcNAc(b1-3)Gal(b1-4)GlcNAc(b1-2)Man(a1-3)]Man(b1-4)GlcNAc(b1-4)[Fuc(a1-6)]GlcNAc
Outline: as §1

[22] = target: Gal(b1-4)GlcNAc(b1-3)Gal(b1-4)GlcNAc(b1-3)Gal(b1-4)GlcNAc(b1-3)Gal(b1-4)GlcNAc(b1-3)Gal(b1-4)GlcNAc(b1-3)Gal(b1-4)GlcNAc(b1-2)Man(a1-3)[Gal(b1-4)GlcNAc(b1-3)Gal(b1-4)GlcNAc(b1-3)Gal(b1-4)GlcNAc(b1-3)Gal(b1-4)GlcNAc(b1-3)Gal(b1-4)GlcNAc(b1-3)Gal(b1-4)GlcNAc(b1-2)Man(a1-6)]Man(b1-4)GlcNAc(b1-4)GlcNAc
Outline: as §1

[23] = target: Gal(b1-4)GlcNAc(b1-3)Gal(b1-4)GlcNAc(b1-3)GalNAc
Outline: as §1

[24] = target: Gal(b1-4)GlcNAc(b1-3)Gal(b1-4)GlcNAc(b1-3)[Gal(b1-4)GlcNAc(b1-3)Gal(b1-4)GlcNAc(b1-6)]GalNAc
Outline: as §1

[25] = target: Gal(b1-4)GlcNAc(b1-3)Gal(b1-4)GlcNAc(b1-6)[Gal(b1-3)]GalNAc
Outline: as §1

[26] = target: Gal(b1-4)GlcNAc(b1-3)Gal(b1-4)[Fuc(a1-3)]GlcNAc(b1-3)Gal(b1-4)[Fuc(a1-3)]GlcNAc
Outline: as §1

[27] = target: Gal(b1-4)GlcNAc(b1-3)GalNAc
Outline: as §1

[28] = target: Gal(b1-4)GlcNAc(b1-3)[Fuc(a1-3)GlcNAc(b1-6)]Gal(b1-4)Glc
Outline: as §1

[29] = target: Gal(b1-4)GlcNAc(b1-3)[Gal(b1-4)GlcNAc(b1-6)]Gal(b1-4)GlcNAc
Outline: as §1

[30] = target: Gal(b1-4)GlcNAc(b1-3)[GlcNAc(b1-6)]Gal(b1-4)GlcNAc
Outline: as §1

[31] = target: Gal(b1-4)GlcNAc(b1-6)Gal(b1-4)GlcNAc
Outline: as §1

[32] = target: Gal(b1-4)GlcNAc(b1-6)GalNAc
Outline: as §1

[33] = target: Gal(b1-4)GlcNAc(b1-6)[Gal(b1-3)]GalNAc
Outline: as §1

[34] = target: Gal(b1-4)GlcNAc(b1-6)[Gal(b1-4)GlcNAc(b1-3)]GalNAc
Outline: as §1

Gal(b1-4)GlcNAc6P = target: Gal(b1-4)GlcNAc6P
Outline: as §1

Gal(b1-6)Gal = target: Gal(b1-6)Gal
Outline: as §1

Gal3S(b1-3)GalNAc = target: Gal3S(b1-3)GalNAc
Outline: as §1

Gal3S(b1-3)GlcNAc = target: Gal3S(b1-3)GlcNAc
Outline: as §1

B1: Siglec-9 (Homo sapiens), Q9Y336 (protein)
chain: MLLLLLPLLWGRERAEGQTSKLLTMQSSVTVQEGLCVHVPCSFSYPSHGWIYPGPVVHGYWFREGANTDQDAPVATNNPARAVWEETRDRFHLLGDPHTKNCTLSIRDARRSDAGRYFFKMEKGSIKWNYKHHRLSVNVTALTHRPNILIPGTLESGCPQNLTCSVPWACEQGTPPMISWIGTSVSPLDPSTTRSSVLTLIPQPQDHGTSLTCQVTFPGASVTTNKTVHLNVSYPPQNLTMTVFQGDGTVSTVLGNGSSLSLPEGQSLRLVCAVDAVDSNPPARLSLSWRGLTLCPSQPSNPGVLELPWVHLRDAAEFTCRAQNPLGSQQVYLNVSLQSKATSGVTQGVVGGAGATALVFLSFCVIFVVVRSCRKKSARPAAGVGDTGIEDANAVRGSASQGPLTEPWAEDSPPDQPPPASARSSVGEGELQYASLSFQMVKPWDSRGQEATDTEYSEIKIHR
[1]
  glycan array binding signal (z-score): 0.261
[2]
  glycan array binding signal (z-score): -0.302
[3]
  glycan array binding signal (z-score): -0.267
[4]
  glycan array binding signal (z-score): 0.236
[5]
  glycan array binding signal (z-score): -0.375
[6]
  glycan array binding signal (z-score): 0.054
[7]
  glycan array binding signal (z-score): -0.464
[8]
  glycan array binding signal (z-score): 0.246
[9]
  glycan array binding signal (z-score): -0.136
[10]
  glycan array binding signal (z-score): 0.297
[11]
  glycan array binding signal (z-score): -0.068
[12]
  glycan array binding signal (z-score): -0.454
[13]
  glycan array binding signal (z-score): 0.276
[14]
  glycan array binding signal (z-score): -0.04
[15]
  glycan array binding signal (z-score): -0.272
[16]
  glycan array binding signal (z-score): -0.423
[17]
  glycan array binding signal (z-score): -0.204
[18]
  glycan array binding signal (z-score): -0.342
[19]
  glycan array binding signal (z-score): -0.293
[20]
  glycan array binding signal (z-score): -0.478
[21]
  glycan array binding signal (z-score): -0.401
[22]
  glycan array binding signal (z-score): -0.27
[23]
  glycan array binding signal (z-score): -0.105
[24]
  glycan array binding signal (z-score): 0.096
[25]
  glycan array binding signal (z-score): 0.314
[26]
  glycan array binding signal (z-score): -0.305
[27]
  glycan array binding signal (z-score): -0.357
[28]
  glycan array binding signal (z-score): -0.062
[29]
  glycan array binding signal (z-score): -0.24
[30]
  glycan array binding signal (z-score): -0.642
[31]
  glycan array binding signal (z-score): -0.635
[32]
  glycan array binding signal (z-score): 0.335
[33]
  glycan array binding signal (z-score): -0.295
[34]
  glycan array binding signal (z-score): -0.332
Gal(b1-4)GlcNAc6P
  glycan array binding signal (z-score): 0.464
Gal(b1-6)Gal
  glycan array binding signal (z-score): 0.196
Gal3S(b1-3)GalNAc
  glycan array binding signal (z-score): -0.362
Gal3S(b1-3)GlcNAc
  glycan array binding signal (z-score): -0.347
